Laboratory results from article PMC4081100.
This is a selection; strong and weak results do not stand in their true shares. For some assays here: At the low end of the ranking the order means little. The list shows a part of the results. For some assays here: The source does not settle which construct or isoform was used.

Columns and labels:
Test in all cases: universal protein binding microarray (PBM)
Conditions in all cases: transcription factors of Arabidopsis thaliana; high values mean tight binding; most listed sequences are background and not binding sites; double strand, one strand shown
[1] = biological target: GST-NTL6(1-168) (UniProt Q9SCK6)
[2] = biological target: T1, GST-ATAF1 NAC domain (UniProt Q39013)
T1 sequence: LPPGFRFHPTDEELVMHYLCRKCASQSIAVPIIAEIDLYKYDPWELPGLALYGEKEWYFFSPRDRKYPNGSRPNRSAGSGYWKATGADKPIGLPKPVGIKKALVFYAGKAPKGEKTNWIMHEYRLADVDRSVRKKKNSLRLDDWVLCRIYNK

[3] = biological target: T2, GST-NTL8 NAC domain (UniProt Q9XIN7)
T2 sequence: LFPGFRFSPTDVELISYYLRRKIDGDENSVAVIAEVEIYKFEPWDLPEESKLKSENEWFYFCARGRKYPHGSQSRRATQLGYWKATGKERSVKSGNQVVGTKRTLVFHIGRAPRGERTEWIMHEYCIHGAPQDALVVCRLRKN

[4] = biological target: T3, GST-VND7 NAC domain (UniProt Q9C8W9)
T3 sequence: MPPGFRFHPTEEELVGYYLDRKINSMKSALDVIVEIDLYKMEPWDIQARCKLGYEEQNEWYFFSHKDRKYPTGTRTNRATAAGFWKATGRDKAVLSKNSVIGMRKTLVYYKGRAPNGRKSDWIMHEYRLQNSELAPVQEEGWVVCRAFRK

[5] = biological target: T4, GST-VOZ2 (Arabidopsis thaliana) (UniProt Q9SLB9)
T4 sequence: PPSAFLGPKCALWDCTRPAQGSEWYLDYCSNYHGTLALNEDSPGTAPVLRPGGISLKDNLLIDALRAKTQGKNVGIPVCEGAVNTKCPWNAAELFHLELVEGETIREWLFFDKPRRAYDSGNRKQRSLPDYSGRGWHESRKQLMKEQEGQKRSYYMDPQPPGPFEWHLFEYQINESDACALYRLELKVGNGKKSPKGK

[6] = biological target: GST-WRKY1(266-371) (UniProt Q9SI37)
[7] = biological target: T5, GST-ANAC055(1-171) (UniProt Q9LDY8)
T5 sequence: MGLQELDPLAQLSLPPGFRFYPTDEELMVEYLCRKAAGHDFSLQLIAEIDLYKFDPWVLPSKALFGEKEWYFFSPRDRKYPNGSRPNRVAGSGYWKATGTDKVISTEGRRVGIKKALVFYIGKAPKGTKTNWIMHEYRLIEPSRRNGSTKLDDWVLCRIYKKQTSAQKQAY

[8] = biological target: T6, GST-ANAC019 NAC domain (UniProt Q9C932)
T6 sequence: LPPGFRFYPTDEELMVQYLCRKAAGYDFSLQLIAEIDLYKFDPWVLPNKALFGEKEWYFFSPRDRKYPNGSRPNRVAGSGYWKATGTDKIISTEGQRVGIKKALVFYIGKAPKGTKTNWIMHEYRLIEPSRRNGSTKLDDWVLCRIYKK

[9] = biological target: T7, GST-ANAC092(1-285) full length (UniProt Q9FKA0)
T7 sequence: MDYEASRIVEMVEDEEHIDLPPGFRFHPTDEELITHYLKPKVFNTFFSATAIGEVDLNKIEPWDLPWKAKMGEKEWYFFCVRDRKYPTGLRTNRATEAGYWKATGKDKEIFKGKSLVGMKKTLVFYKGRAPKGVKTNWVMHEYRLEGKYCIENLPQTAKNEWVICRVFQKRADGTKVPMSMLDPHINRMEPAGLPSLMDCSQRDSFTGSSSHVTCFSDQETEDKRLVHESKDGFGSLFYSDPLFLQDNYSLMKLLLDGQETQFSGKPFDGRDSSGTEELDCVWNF

[10] = biological target: T8, GST-NST2(1-184) (UniProt Q9M274)
T8 sequence: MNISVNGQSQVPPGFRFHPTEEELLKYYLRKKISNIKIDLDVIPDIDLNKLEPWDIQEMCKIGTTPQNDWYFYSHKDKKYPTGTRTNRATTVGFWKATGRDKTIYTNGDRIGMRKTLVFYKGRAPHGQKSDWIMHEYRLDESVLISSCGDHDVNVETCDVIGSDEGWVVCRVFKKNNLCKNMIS

[11] = biological target: T9, GST-NAP(1-166) (UniProt O49255)
T9 sequence: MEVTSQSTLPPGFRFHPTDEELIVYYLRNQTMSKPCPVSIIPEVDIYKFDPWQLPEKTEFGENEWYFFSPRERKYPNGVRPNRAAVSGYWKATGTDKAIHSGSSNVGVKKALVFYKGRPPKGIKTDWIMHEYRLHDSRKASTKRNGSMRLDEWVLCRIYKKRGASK

[12] = biological target: T10, GST-ANAC092(1-176) (UniProt Q9FKA0)
T10 sequence: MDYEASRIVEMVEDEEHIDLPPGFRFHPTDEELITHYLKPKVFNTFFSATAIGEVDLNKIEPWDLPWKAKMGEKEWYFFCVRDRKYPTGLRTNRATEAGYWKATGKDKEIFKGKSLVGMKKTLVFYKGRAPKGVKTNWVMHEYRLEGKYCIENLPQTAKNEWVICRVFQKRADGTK

Chain of UniProt Q9SI37 (Q9SI37 266-371): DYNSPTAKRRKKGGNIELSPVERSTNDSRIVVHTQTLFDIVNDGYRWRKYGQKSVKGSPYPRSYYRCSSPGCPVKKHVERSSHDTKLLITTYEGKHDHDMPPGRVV

Row | Sequence | binding signal [1] [E-score] | binding signal [2] [E-score] | binding signal [3] [E-score] | binding signal [4] [E-score] | binding signal [5] [E-score] | binding signal [6] [E-score] | binding signal [7] [E-score] | binding signal [8] [E-score] | binding signal [9] [E-score] | binding signal [10] [E-score] | binding signal [11] [E-score] | binding signal [12] [E-score]
1 | GGACGCAA | -0.076 | 0.0919 | -0.103 | 0.0578 | 0.0459 | -0.0703 |  |  |  |  |  | 
2 | ACGTTAGC | -0.0979 |  | -0.0549 | 0.128 | 0.0242 | -0.0388 | 0.0938 |  |  |  |  | 
3 | ATACTTAA | 0.445 |  | 0.154 | 0.106 | 0.022 | -0.126 |  | 0.0287 |  |  |  | 
4 | AACACGGA | 0.0315 |  | 0.0255 | 0.362 | 0.0321 | -0.0321 |  |  | 0.274 | 0.173 |  | 
5 | CTTACTTC | 0.413 |  | 0.4 | 0.23 | 0.116 | 0.0256 |  |  |  |  | -0.0305 | 
6 | CCACGCTA | 0.0243 | -0.021 |  | 0.0402 | 0.0992 | -0.0759 | -0.0151 | 0.155 |  |  | -0.0239 | 
7 | AACACGTT | -0.0691 |  | 0.132 | 0.203 | -0.0565 | -0.0466 | 0.284 |  |  | 0.222 | 0.259 | 
8 | TACCTTAA | 0.42 |  | 0.298 | 0.0949 | 0.0461 | -0.141 |  | -0.00139 |  | 0.149 | -0.0262 | 
9 | CACGGCAA | 0.0683 | 0.364 | 0.0895 | 0.444 | 0.0419 | 0.0404 |  |  |  |  |  | 
10 | CACACGCA |  |  |  | 0.353 | 0.0898 | 0.0271 |  |  | 0.47 |  | 0.375 | 
11 | AACGTGTA |  |  | -0.0491 | 0.0615 | 0.0622 | -0.155 |  |  |  | 0.265 |  | 
12 | ATAACGTG | -0.0148 |  | -0.0496 | 0.109 | -0.0286 | -0.117 |  |  |  |  |  | 
13 | CGAAGTAA |  |  |  | 0.19 | 0.0794 | -0.0222 | 0.143 | 0.128 |  | 0.223 | 0.00983 | 
14 | AAGTTACC |  |  |  | 0.0773 | 0.0396 | -0.206 |  | 0.155 |  |  |  | 
15 | AGACACGC | -0.0492 | 0.165 |  | 0.165 | 0.0775 |  |  | 0.0909 |  |  |  | 0.364
16 | GTTACGTA |  |  | 0.319 | 0.477 | -0.0733 | -0.00308 |  |  | 0.456 | 0.337 | 0.483 | 

Row | Sequence | binding signal [1] [E-score] | binding signal [2] [E-score] | binding signal [3] [E-score] | binding signal [4] [E-score] | binding signal [5] [E-score] | binding signal [6] [E-score] | binding signal [7] [E-score] | binding signal [8] [E-score] | binding signal [9] [E-score] | binding signal [10] [E-score] | binding signal [11] [E-score] | binding signal [12] [E-score]
17 | CTTCCTTA |  | 0.0435 | 0.223 | -0.0641 | -0.0764 |  | 0.0252 | 0.0721 |  |  | -0.0468 | 
18 | GTACGTAA | 0.174 |  | 0.167 | 0.44 | 0.145 |  | 0.42 |  | 0.441 | 0.276 |  | 
19 | GAAAGGAA | 0.32 |  |  | 0.231 | 0.0952 |  | 0.168 | 0.134 |  |  | -0.02 | 
20 | AGCGTAAG |  |  | 0.0559 | 0.141 | 0.136 | 0.026 |  | -0.00696 |  | 0.172 | -0.00509 | 
21 | CTTGACTA | -0.0211 |  | 0.0949 | 0.0272 | 0.0134 |  |  |  | 0.0162 |  | -0.0927 | -0.0302
22 | CAGTCAAC | -0.0395 |  | -0.00947 | -0.0423 | -0.0285 |  | -0.00077 | -0.00831 | -0.0544 | 0.00533 | -0.0614 | 0.0753
23 | TTGACCAA | -0.0152 | 0.066 | 0.0477 | 0.0251 | 0.0941 |  |  | 0.063 | 0.226 | -0.0128 | 0.0358 | 
24 | CGTGGTCA | -0.0886 |  | 0.00556 | 0.128 | -0.0408 |  | 0.0851 |  |  | -0.0758 | -0.0571 | 
25 | GTCGCGTA | 0.0763 | 0.195 | -0.0551 | 0.233 | 0.114 |  | 0.0476 | -0.0345 |  | 0.109 | 0.171 | 
26 | ATAAGGAA |  |  | 0.332 | 0.0381 | -0.0827 | 0.00406 |  | -0.0129 |  |  | 0.0352 | 
27 | AAAAGTCA |  |  | 0.128 | 0.122 | 0.0755 |  |  | 0.185 |  | 0.274 | 0.08 | 0.142
28 | TTACGTAA | 0.171 |  | 0.411 | 0.481 | 0.0304 |  |  |  |  | 0.433 |  | 
29 | ACGTAAAG |  |  |  | 0.283 | 0.143 |  |  |  |  |  | 0.255 | 0.402
30 | TACGCAAA |  | 0.323 | 0.0978 | 0.334 | 0.191 | -0.0292 |  |  | 0.469 | 0.393 |  | 
31 | GCGTGTCA | -0.0922 |  | -0.12 | 0.189 | 0.064 |  |  |  |  | 0.0663 |  | 
32 | CAAAAGTC | 0.0864 |  | -0.042 | 0.0349 | 0.13 |  |  | -0.0124 |  |  | -0.0405 | 
